{"source": "paper PMC9911399", "about": "“Two distinct binding modes provide the RNA-binding protein RbFox with extraordinary sequence specificity”", "binders": {"B1": {"name": "GAGCUAA (DNA:RNA)", "RNA": "GGGAGACCGGAAUUCAGAUUGUCCGAGCUAAUUAAAUCCCGUCGUAGCCACCA", "DNA 1": "CAATCTGAATTCCGGTCTCCC", "DNA 2": "TGGTGGCTACGACGGGATT"}, "B2": {"name": "GCGCCGG (DNA:RNA)", "RNA": "B1 RNA with A26C, U29C, A30G, A31G", "DNA 1": "CAATCTGAATTCCGGTCTCCC", "DNA 2": "TGGTGGCTACGACGGGATT"}, "B3": {"name": "UCUUGUA (DNA:RNA)", "RNA": "B1 RNA with G25U, A26C, G27U, C28U, U29G, A30U", "DNA 1": "CAATCTGAATTCCGGTCTCCC", "DNA 2": "TGGTGGCTACGACGGGATT"}, "B4": {"name": "CGAAUUC (DNA:RNA)", "RNA": "B1 RNA with G25C, A26G, G27A, C28A, A30U, A31C", "DNA 1": "CAATCTGAATTCCGGTCTCCC", "DNA 2": "TGGTGGCTACGACGGGATT"}, "B5": {"name": "GGUCAGU (DNA:RNA)", "RNA": "B1 RNA with A26G, G27U, U29A, A30G, A31U", "DNA 1": "CAATCTGAATTCCGGTCTCCC", "DNA 2": "TGGTGGCTACGACGGGATT"}, "B6": {"name": "GUGUCUC (DNA:RNA)", "RNA": "B1 RNA with A26U, C28U, U29C, A30U, A31C", "DNA 1": "CAATCTGAATTCCGGTCTCCC", "DNA 2": "TGGTGGCTACGACGGGATT"}, "B7": {"name": "GUUUAGG (DNA:RNA)", "RNA": "B1 RNA with A26U, G27U, C28U, U29A, A30G, A31G", "DNA 1": "CAATCTGAATTCCGGTCTCCC", "DNA 2": "TGGTGGCTACGACGGGATT"}, "B8": {"name": "GGAGGCU (DNA:RNA)", "RNA": "B1 RNA with A26G, G27A, C28G, U29G, A30C, A31U", "DNA 1": "CAATCTGAATTCCGGTCTCCC", "DNA 2": "TGGTGGCTACGACGGGATT"}, "B9": {"name": "UAACGAU (DNA:RNA)", "RNA": "B1 RNA with G25U, G27A, U29G, A31U", "DNA 1": "CAATCTGAATTCCGGTCTCCC", "DNA 2": "TGGTGGCTACGACGGGATT"}, "B10": {"name": "AUUGGAC (DNA:RNA)", "RNA": "B1 RNA with G25A, A26U, G27U, C28G, U29G, A31C", "DNA 1": "CAATCTGAATTCCGGTCTCCC", "DNA 2": "TGGTGGCTACGACGGGATT"}, "B11": {"name": "AUUUAAC (DNA:RNA)", "RNA": "B1 RNA with G25A, A26U, G27U, C28U, U29A, A31C", "DNA 1": "CAATCTGAATTCCGGTCTCCC", "DNA 2": "TGGTGGCTACGACGGGATT"}, "B12": {"name": "AGCAUGG (DNA:RNA)", "RNA": "B1 RNA with G25A, A26G, G27C, C28A, A30G, A31G", "DNA 1": "CAATCTGAATTCCGGTCTCCC", "DNA 2": "TGGTGGCTACGACGGGATT"}, "B13": {"name": "AUCCAAU (DNA:RNA)", "RNA": "B1 RNA with G25A, A26U, G27C, U29A, A31U", "DNA 1": "CAATCTGAATTCCGGTCTCCC", "DNA 2": "TGGTGGCTACGACGGGATT"}, "B14": {"name": "UGUGGUA (DNA:RNA)", "RNA": "B1 RNA with G25U, A26G, G27U, C28G, U29G, A30U", "DNA 1": "CAATCTGAATTCCGGTCTCCC", "DNA 2": "TGGTGGCTACGACGGGATT"}, "B15": {"name": "UUCAACG (DNA:RNA)", "RNA": "GGGAGACCGGAAUUCAGAUUGUCCUUCAACGUUAAAUCCCGUCGUAGCCACCA", "DNA 1": "CAATCTGAATTCCGGTCTCCC", "DNA 2": "TGGTGGCTACGACGGGATT"}, "B16": {"name": "GUGGGCU (DNA:RNA)", "RNA": "B1 RNA with A26U, C28G, U29G, A30C, A31U", "DNA 1": "CAATCTGAATTCCGGTCTCCC", "DNA 2": "TGGTGGCTACGACGGGATT"}, "B17": {"name": "GAAUAGC (DNA:RNA)", "RNA": "B1 RNA with G27A, C28U, U29A, A30G, A31C", "DNA 1": "CAATCTGAATTCCGGTCTCCC", "DNA 2": "TGGTGGCTACGACGGGATT"}, "B18": {"name": "UUCACGA (DNA:RNA)", "RNA": "B15 RNA with A29C, C30G, G31A", "DNA 1": "CAATCTGAATTCCGGTCTCCC", "DNA 2": "TGGTGGCTACGACGGGATT"}, "B19": {"name": "AUUACCU (DNA:RNA)", "RNA": "B15 RNA with U25A, C27U, A29C, G31U", "DNA 1": "CAATCTGAATTCCGGTCTCCC", "DNA 2": "TGGTGGCTACGACGGGATT"}, "B20": {"name": "UAACUAU (DNA:RNA)", "RNA": "B1 RNA with G25U, G27A, A31U", "DNA 1": "CAATCTGAATTCCGGTCTCCC", "DNA 2": "TGGTGGCTACGACGGGATT"}}, "note": "Substitutions are numbered along the chain they refer to; changes in the protein carry UniProt numbers. The list shows a part of the results."}
{"target": "T1, RBFOX1 RRM RbFoxmut (Fox-RRM*) (Homo sapiens, UniProt Q9NWB1 109-208, R118D;E147R;N151S;E152T)", "T1 sequence": "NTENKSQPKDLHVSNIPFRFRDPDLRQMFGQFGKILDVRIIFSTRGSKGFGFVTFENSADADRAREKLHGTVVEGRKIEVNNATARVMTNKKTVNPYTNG", "test": "EMSA; HiTS-Eq, 1 nM pool, 10 min; buffer printed only for the single-RNA assays: 10 mM Tris pH 7.5, 150 mM NaCl, 3.4 mM EDTA, 0.001% NP-40, 30 C", "conditions": "tags: His6 N-terminal (pET28a); label: 5' 32P", "procedure,_shortened": "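Purified wild-type or mutant RbFox RRM at increasing concentrations was equilibrated with 1 nM of 5′-radiolabelled RNA carrying 7 randomized nucleotides for 10 min in 50 µL. Unbound RNA was separated by 8% native PAGE and sequenced. Relative association constants came from read-count changes of each RNA species compared with the control reaction, normalised to the cognate motif.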"}
{"binder": "B1", "binding signal": "0.0915 KA relative to UGCAUGU"}
{"binder": "B2", "binding signal": "0.0967 KA relative to UGCAUGU"}
{"binder": "B3", "binding signal": "0.236 KA relative to UGCAUGU"}
{"binder": "B4", "binding signal": "0.076 KA relative to UGCAUGU"}
{"binder": "B5", "binding signal": "0.106 KA relative to UGCAUGU"}
{"binder": "B6", "binding signal": "0.144 KA relative to UGCAUGU"}
{"binder": "B7", "binding signal": "0.0929 KA relative to UGCAUGU"}
{"binder": "B8", "binding signal": "0.0786 KA relative to UGCAUGU"}
{"binder": "B9", "binding signal": "0.028 KA relative to UGCAUGU"}
{"binder": "B10", "binding signal": "0.0636 KA relative to UGCAUGU"}
{"binder": "B11", "binding signal": "0.126 KA relative to UGCAUGU"}
{"binder": "B12", "binding signal": "0.538 KA relative to UGCAUGU"}
{"binder": "B13", "binding signal": "0.0787 KA relative to UGCAUGU"}
{"binder": "B14", "binding signal": "0.22 KA relative to UGCAUGU"}
{"binder": "B15", "binding signal": "0.114 KA relative to UGCAUGU"}
{"binder": "B16", "binding signal": "0.096 KA relative to UGCAUGU"}
{"binder": "B17", "binding signal": "0.118 KA relative to UGCAUGU"}
{"binder": "B18", "binding signal": "0.079 KA relative to UGCAUGU"}
{"binder": "B19", "binding signal": "0.133 KA relative to UGCAUGU"}
{"binder": "B20", "binding signal": "0.0483 KA relative to UGCAUGU"}
